# Measurements reported in paper PMC4336329 (PLoS ONE, 2015).
# Among all 310,000 compounds or so, about 2,200 (0.71%) showed an effect of 50% or more. Effects have a minus sign here. The list shows a part of the results.
# Target: human ether-à-go-go-related gene (hERG) potassium channel (human, UniProt Q12809)
# Assay: primary screen, population patch clamp on CHO cells stably expressing hERG
# Chain of human ether-à-go-go-related gene (hERG) potassium channel (Q12809 whole entry, looked up): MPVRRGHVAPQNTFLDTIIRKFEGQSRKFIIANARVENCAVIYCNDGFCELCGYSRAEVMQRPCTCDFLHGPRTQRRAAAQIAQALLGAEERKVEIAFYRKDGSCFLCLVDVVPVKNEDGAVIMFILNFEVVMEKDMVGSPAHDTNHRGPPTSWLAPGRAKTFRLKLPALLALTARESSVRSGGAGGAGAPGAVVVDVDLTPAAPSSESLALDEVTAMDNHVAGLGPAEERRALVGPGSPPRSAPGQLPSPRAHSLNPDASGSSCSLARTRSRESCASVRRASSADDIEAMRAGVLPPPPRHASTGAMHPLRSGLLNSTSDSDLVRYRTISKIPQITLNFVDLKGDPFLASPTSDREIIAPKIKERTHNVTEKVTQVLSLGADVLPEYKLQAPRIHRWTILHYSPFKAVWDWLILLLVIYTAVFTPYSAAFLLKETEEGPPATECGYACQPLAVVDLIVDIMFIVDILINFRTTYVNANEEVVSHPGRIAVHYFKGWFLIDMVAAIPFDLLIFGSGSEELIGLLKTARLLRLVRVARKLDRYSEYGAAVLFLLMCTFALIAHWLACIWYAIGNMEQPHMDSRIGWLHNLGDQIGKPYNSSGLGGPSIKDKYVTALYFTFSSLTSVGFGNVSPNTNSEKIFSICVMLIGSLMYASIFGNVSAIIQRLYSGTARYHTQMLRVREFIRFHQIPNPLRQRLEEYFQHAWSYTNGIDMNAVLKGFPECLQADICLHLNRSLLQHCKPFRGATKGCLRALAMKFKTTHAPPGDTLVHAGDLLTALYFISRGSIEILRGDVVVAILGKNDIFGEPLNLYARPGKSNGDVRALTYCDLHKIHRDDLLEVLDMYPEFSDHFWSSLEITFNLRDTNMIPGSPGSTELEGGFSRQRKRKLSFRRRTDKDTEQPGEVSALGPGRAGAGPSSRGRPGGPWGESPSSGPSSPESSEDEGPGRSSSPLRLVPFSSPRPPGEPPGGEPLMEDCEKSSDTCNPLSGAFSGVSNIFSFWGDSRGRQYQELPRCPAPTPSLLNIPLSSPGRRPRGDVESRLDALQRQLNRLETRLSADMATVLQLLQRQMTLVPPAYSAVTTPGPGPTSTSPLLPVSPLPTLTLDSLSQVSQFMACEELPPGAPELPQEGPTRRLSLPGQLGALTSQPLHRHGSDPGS
row,Structure (SMILES),"hERG current change (%, negative = inhibition) at 1uM [%]"
1,CC(=O)N1CCc2c(sc(NC(=O)CCS(=O)(=O)c3ccccc3)c2C#N)C1,12.4
2,CC(=O)c1sc(-c2ccc(F)cc2F)nc1C,13.3
3,CC(C)(C)CN1C(N)=NC[C@@H]1Cc1ccccc1,7.31
4,CCOc1ccccc1C(=O)Nc1cc(C(=O)NCCc2ccccc2)ccc1Cl,11.9
5,CSc1nc2nccc(-c3ccc4c(c3)OCO4)n2n1,15.6
6,COC(=O)c1cc(C#N)c(N2CCOCC2)nc1C,10
7,COCCn1c(C)cc(C(=O)COC(=O)CCN2C(=O)c3ccccc3C2=O)c1C,8.17
8,CC(=O)Nc1ccccc1C(=O)C(=O)Nc1ccc(C)c(F)c1,14.8
9,NS(=O)(=O)c1ccc(NC(=O)COC(=O)/C=C/c2ccc([N+](=O)[O-])cc2)cc1,11.7
10,CCC(C)(C)n1nnnc1CN1CCN(c2nc3ccc(C)cc3cc2C#N)CC1,1.23
11,CCCCN1CCN=C1N(C)C,8.24
12,CCOC(=O)CCCNC(=O)CCNC(=O)c1ccc(OCC)cc1,4.22
13,O=C(NCc1ccccc1Cl)C1CCCN1S(=O)(=O)c1ccc(F)cc1 (centres unmarked),9.99
14,Cc1ccc(C(=O)OCC(=O)NC(C)C)cc1S(=O)(=O)N1CCOCC1,12.1
15,O=C1Nc2ccc(S(=O)(=O)NCC3CCCO3)c3cccc1c23 (centres unmarked),5.44
16,COc1ccc(S(=O)(=O)Nc2ccc(S(=O)(=O)Nc3cc(C)nc(C)n3)cc2)cc1OC,16.7
17,COc1cccc(C(=O)Nc2cc([N+](=O)[O-])ccc2N2CCN(C)CC2)c1,-49.3
18,CCOC(=O)c1c(Nc2ccccc2)sc(/C=C2\C=Nc3ccccc32)c1O,1.98
19,Cc1ccccc1NC(=O)c1cccc(S(=O)(=O)N2CCCCC2)c1,1.16
20,CCc1ccc(OCCn2ccnc2)cc1,12.8
21,COC(=O)C1=C(O)/C(=C/c2ccc(OCC(=O)Nc3ccccc3)cc2)N=C1C,11
22,O=C(N/N=C/c1ccsc1)c1ccc2c(c1)OCO2,11.9
23,COc1ccc(C)cc1NC(=O)C(OC(=O)CNC(=O)c1ccc(Oc2ccccc2)cc1)c1ccccc1 (centres unmarked),15.6

row,Structure (SMILES),"hERG current change (%, negative = inhibition) at 1uM [%]"
1,Cc1[nH]c2ccccc2c1C(=O)CSC(=S)N1CCN(C)CC1,10.1
2,COCCn1c(=NC(=O)c2cc(-c3cccs3)nc3ccccc23)sc2cc(S(N)(=O)=O)ccc21,9.95
3,CCC1=C(OC(=O)N(CC)CC)N2C(=O)OC(=NCCOC)[C@]2(Cc2ccccc2)[C@H]2C1=CC[C@H]1C(=O)N(CC)C(=O)[C@H]12,13.2
4,Fc1ccc(CSc2ccc(-c3ccc4c(c3)OCO4)nn2)cc1,5.64
5,CCOC(=O)c1c(N)c(C#N)cn1-c1ccccc1,3.2
6,COc1ccc(OC)c(/C=N/c2oc(-c3ccco3)c(-c3ccco3)c2C#N)c1,16.9
7,CSc1ncc(Cl)c(C(=O)Nc2cc(C)ccc2C)n1,12
8,CCCCOC(=O)c1ccc(NC(=O)C(=O)NCCN(C)C)cc1,3.01
9,CCOC(=O)c1c(NC(=O)c2ccco2)n(C2CCCCC2)c2nc3ccccc3nc12,-8.87
10,COc1ccc(CCNC(=O)CCCNC(=O)Cn2cnc3sc(C)c(C)c3c2=O)cc1OC,7.88
11,S=c1[nH]nc(Nc2cccc(Cl)c2)s1,16
12,CCc1cccc(NC(=O)c2cccc(S(=O)(=O)N3CCN(C)CC3)c2)c1,-7.15
13,CCCOc1ccc(CC2CCC(=O)NC2=O)cc1 (centres unmarked),-0.444
14,CC(=O)OC1COC(n2ccc3ccccc32)C(OC(C)=O)C1OC(C)=O (centres unmarked),11.6
15,O=C(O)/C=C/C(=O)Nc1ccc(SC(F)(F)C(F)(F)C(F)(F)F)cc1,31.8
16,NNC(=O)c1ccc(COc2ccc3c(c2)CCC3)o1,0.612
17,CCN(CC)CCOC(=O)C(O)(c1ccccc1)c1ccccc1.Cl,-3.02
18,COc1ccc(CNC(=O)C2CCCN2C)cc1OC (centres unmarked),5.12
19,CN(CC1COc2ccccc2O1)C(=S)NC1CCCCC1 (centres unmarked),3.41
20,O=C(NCC(=O)N(c1cccnc1)C(C(=O)NC1CCCC1)c1cccs1)c1cccs1 (centres unmarked),18.7
21,CCOC(=O)C1CCCN(CC(=O)c2ccc(F)cc2)C1.O=C(O)C(=O)O (centres unmarked),7.86
22,Cc1[nH]c2ccccc2c1C(=O)CN1CCCC1,7.66
23,O=c1c2ccccc2[nH]c(=S)n1-c1ccc2c(c1)OCCO2,11.7

row,Structure (SMILES),"hERG current change (%, negative = inhibition) at 1uM [%]"
1,Cn1c(CSc2nc3ccccc3s2)nnc1SCC(=O)NCc1ccccn1,11
2,CCC(C)[C@H](NC(=O)C1CCN(C(=O)[C@H](Cc2ccccc2)NS(=O)(=O)c2ccc(C)cc2)CC1)C(=O)O (some centres unmarked),16.1
3,COc1ccc(NC(=O)C2CCCO2)c(OC)c1 (centres unmarked),14.6
4,COc1cccc(SCC(=O)N2CCN(c3ccccc3)CC2)c1,5.88
5,Cc1cc(=O)n2[nH]c(-c3cccc(Cl)c3)cc2n1,0.243
6,COc1ccc(C2CC(c3cccs3)=NN2C(=O)CSC2=NN3CCCC(=O)N=C3S2)cc1 (centres unmarked),7.13
7,c1ccc(CCC2Cc3ccccc3N2)cc1 (centres unmarked),18.4
8,COCCOC(=O)C1=C(C)NC(=O)NC1c1c(OC)ncnc1OC (centres unmarked),8.55
9,CCCn1c(=O)n(CC(=O)NCC2CCCO2)c(=O)c2c3c(sc21)COC(C)(C)C3 (centres unmarked),17
10,Cc1ccc(NC(=O)CCOc2ccccc2)cc1S(=O)(=O)Nc1ccccc1Cl,4.04
11,CS(=O)(=O)N(CC(=O)N1CCCCCC1)c1ccc2c(c1)OCCO2,11.8
12,Cn1c(=O)c(C(=O)Nc2ccccn2)c(O)c2ccccc21,4.95
13,O=C(O)c1cc(-c2ccc(Cl)s2)nc2ccccc12,23.9
14,CC1CN(CCCOc2ccccc2[N+](=O)[O-])CC(C)O1.O=C(O)C(=O)O (centres unmarked),6.17
15,COC(CNC(=O)c1cc(C(=O)c2c(-c3c(Cl)cccc3Cl)noc2C)c[nH]1)OC,4.89
16,NS(=O)(=O)c1ccc2ccccc2c1,8.99
17,CCCCN1C(=O)/C(=C2/C=CC=CN2C)SC1=S,4.89
18,CN(c1ccc(C(=O)N2CCCCC2)cc1)S(=O)(=O)c1cccs1,11.7
19,Cc1ccn2c(=O)nc(SCC(=O)NCc3ccc4c(c3)OCO4)nc2c1,-10.9
20,CC(C)c1ccc(-c2csc(NC(=O)c3cccs3)c2C(=O)O)cc1,9.39
21,C=CCOC(=O)C1=C(C)NC(SCC(=O)Nc2ccc(C)c(Cl)c2)=C(C#N)C1c1ccco1 (centres unmarked),8.57
22,CC(C)OC(=O)/C(=C/c1ccco1)c1ccccc1,6.25
23,O=C(/C=C/c1cccnc1)c1ccc(F)c(F)c1,15.9

row,Structure (SMILES),"hERG current change (%, negative = inhibition) at 1uM [%]"
1,Cc1cc(NC(=O)c2cc3cccc([N+](=O)[O-])c3[nH]2)ccc1F,11.5
2,O=C(O)CCCCn1c(SCc2cc(=O)n3cc(Cl)ccc3n2)nc2ccsc2c1=O,7.83
3,COCCN(C(=O)CCC(=O)Nc1ccccn1)C(C(=O)NCCC(C)C)c1ccc(C)cc1 (centres unmarked),3.08
4,Oc1ccc(Br)cc1-c1ccnn1-c1ccccc1,12.3
5,CCCC(C)NC(=O)c1c2c(nc3ccccc13)CCC2 (centres unmarked),17.7
6,Cc1nc2ccccc2c(-c2ccccc2)c1C(=O)c1ccccc1,14.7
7,CN(C(=S)NC(=O)c1ccc(Br)o1)c1ccccc1,2.62
8,O=c1cc(O)n(-c2ccccc2F)c(=S)[nH]1,9.1
9,COc1cccc(-n2c(SCC(=O)O)nnc2-c2cccnc2)c1,3.82
10,CSc1ncccc1C(=O)N1CCN(S(=O)(=O)c2ccc3ccccc3c2)CC1,-10.4
11,COCCN(C(=O)CCC(=O)Nc1cc(C)on1)C(C(=O)NC1CCCC1)c1ccc(C(C)C)cc1 (centres unmarked),2.64
12,CCOC(=O)c1ccc(NC2Nc3cc(C)nn3S2)cc1 (centres unmarked),6.64
13,COc1cccc(CN(C)C(=O)c2cc(COc3ccc4ncccc4c3)on2)c1,9.2
14,O=C(O)CSC1=NC(=Nc2cccc(Cl)c2)C2(CCCCC2)N1c1ccccc1,19.9
15,O=C(O)c1ccc(CSc2nnc(SCc3ccccc3)s2)cc1,8.83
16,Cc1noc(C)c1S(=O)(=O)N1CCCC(C(=O)c2cccc(OC(C)C)c2)C1 (centres unmarked),7.31
17,O=C(CN1CCCCCC1)N/N=C/c1ccc(Cl)c(Cl)c1,-6.7
18,Cc1cc(-c2ccccc2)c(C#N)c(N)n1,10.2
19,CCN1C(=O)[C@H]2[C@@H](c3ccc(-c4ccc(OC)cc4)c(OC)c3)N3CCCC[C@@]3(C(=O)OC)[C@H]2C1=O.O=C(O)C(F)(F)F,12.4
20,O=C(NCC1CCCN1S(=O)(=O)c1ccccc1)C(=O)NC1CC1 (centres unmarked),4.91
